The densities may have been worked out from excess volumes.
Assay: xn = mol fraction of the nth substance listed
Conditions: 101 kPa

`CCC[N+]1(C)CCCC1.O=S(=O)([N-]S(=O)(=O)C(F)(F)F)C(F)(F)F` + CCCCCCCCCCCCCC[P+](CCCCCC)(CCCCCC)CCCCCC.O=S(=O)([N-]S(=O)(=O)C(F)(F)F)C(F)(F)F gave a mass density (293.15 K, x2 = 0.05) of 1392 kg/m3, a mass density (293.15 K, x2 = 0.5) of 1169 kg/m3 and a mass density (293.15 K, x2 = 0.6) of 1145 kg/m3. For the same compound, the mass density (293.15 K, x2 = 0.75) was 1112 kg/m3, the mass density (303.15 K, x2 = 0) was 1423 kg/m3 and the mass density (303.15 K, x2 = 0.5) was 1162 kg/m3. The mass density (303.15 K, x2 = 0.6) was 1137 kg/m3, the mass density (303.15 K, x2 = 0.75) was 1105 kg/m3 and the mass density (313.15 K, x2 = 0) was 1414 kg/m3. For the same compound, the mass density (313.15 K, x2 = 0.05) was 1373 kg/m3, the mass density (313.15 K, x2 = 0.5) was 1154 kg/m3 and the mass density (313.15 K, x2 = 0.6) was 1129 kg/m3. For the same compound, the mass density (323.15 K, x2 = 0.5) was 1146 kg/m3, the mass density (323.15 K, x2 = 0.6) was 1121 kg/m3 and the mass density (323.15 K, x2 = 0.75) was 1090 kg/m3. For the same compound, the mass density (333.15 K, x2 = 0) was 1396 kg/m3, the mass density (333.15 K, x2 = 0.05) was 1357 kg/m3 and the mass density (333.15 K, x2 = 0.5) was 1139 kg/m3. For the same compound, the mass density (333.15 K, x2 = 0.6) was 1114 kg/m3, the mass density (333.15 K, x2 = 0.75) was 1082 kg/m3 and the mass density (343.15 K, x2 = 0) was 1388 kg/m3. For the same compound, the mass density (343.15 K, x2 = 0.05) was 1348 kg/m3, the mass density (343.15 K, x2 = 0.5) was 1131 kg/m3 and the mass density (343.15 K, x2 = 0.6) was 1106 kg/m3. It also gave a mass density (343.15 K, x2 = 0.75) of 1075 kg/m3, a mass density (353.15 K, x2 = 0) of 1379 kg/m3 and a mass density (353.15 K, x2 = 0.05) of 1340 kg/m3. It also gave a mass density (353.15 K, x2 = 0.5) of 1123 kg/m3 and a mass density (353.15 K, x2 = 0.75) of 1068 kg/m3.

`CCC[N+]1(C)CCCC1.O=S(=O)([N-]S(=O)(=O)C(F)(F)F)C(F)(F)F` + CCCCCC[N+]1(C)CCCC1.O=S(=O)([N-]S(=O)(=O)C(F)(F)F)C(F)(F)F gave a mass density (303.15 K, x2 = 0) of 1423 kg/m3, a mass density (313.15 K, x2 = 0) of 1414 kg/m3 and a mass density (323.15 K, x2 = 0) of 1405 kg/m3. It also gave a mass density (333.15 K, x2 = 0) of 1396 kg/m3 and a mass density (343.15 K, x2 = 0) of 1388 kg/m3.

In the case of `CCC[N+]1(C)CCCC1.O=S(=O)([N-]S(=O)(=O)C(F)(F)F)C(F)(F)F` + CCCC[N+]1(C)CCCC1.O=S(=O)([N-]S(=O)(=O)C(F)(F)F)C(F)(F)F, the mass density (293.15 K, x2 = 0.5) is reported as 1415 kg/m3, the mass density (293.15 K, x2 = 0.75) is reported as 1406 kg/m3 and the mass density (303.15 K, x2 = 0) is reported as 1423 kg/m3. For the same compound, the mass density (303.15 K, x2 = 0.25) was 1414 kg/m3, the mass density (303.15 K, x2 = 0.5) was 1406 kg/m3 and the mass density (303.15 K, x2 = 0.75) was 1398 kg/m3. It also gave a mass density (313.15 K, x2 = 0) of 1414 kg/m3, a mass density (313.15 K, x2 = 0.25) of 1406 kg/m3 and a mass density (313.15 K, x2 = 0.5) of 1397 kg/m3. For the same compound, the mass density (313.15 K, x2 = 0.75) was 1389 kg/m3, the mass density (323.15 K, x2 = 0) was 1405 kg/m3 and the mass density (323.15 K, x2 = 0.25) was 1397 kg/m3. The mass density (323.15 K, x2 = 0.5) was 1388 kg/m3, the mass density (323.15 K, x2 = 0.75) was 1380 kg/m3 and the mass density (333.15 K, x2 = 0.25) was 1388 kg/m3. It also gave a mass density (333.15 K, x2 = 0.5) of 1379 kg/m3, a mass density (343.15 K, x2 = 0) of 1388 kg/m3 and a mass density (343.15 K, x2 = 0.25) of 1379 kg/m3. For the same compound, the mass density (343.15 K, x2 = 0.5) was 1370 kg/m3, the mass density (343.15 K, x2 = 0.75) was 1363 kg/m3 and the mass density (353.15 K, x2 = 0) was 1379 kg/m3. The mass density (353.15 K, x2 = 0.25) was 1370 kg/m3 and the mass density (353.15 K, x2 = 0.75) was 1354 kg/m3.

`CCC[N+]1(C)CCCC1.O=S(=O)([N-]S(=O)(=O)C(F)(F)F)C(F)(F)F` + CCC[N+]1(C)CCCC1.N#C[N-]C#N showed a mass density (303.15 K, x2 = 0) of 1423 kg/m3, a mass density (323.15 K, x2 = 0) of 1405 kg/m3 and a mass density (333.15 K, x2 = 0) of 1396 kg/m3. For the same compound, the mass density (343.15 K, x2 = 0) was 1388 kg/m3.

Compound `CCCCCCCCCCCCCC[P+](CCCCCC)(CCCCCC)CCCCCC.O=S(=O)([N-]S(=O)(=O)C(F)(F)F)C(F)(F)F` + CCC[N+]1(C)CCCC1.O=S(=O)([N-]S(=O)(=O)C(F)(F)F)C(F)(F)F has a mass density (313.15 K, x1 = 1) of 1055 kg/m3, a mass density (323.15 K, x1 = 1) of 1049 kg/m3 and a mass density (333.15 K, x1 = 1) of 1042 kg/m3. For the same compound, the mass density (343.15 K, x1 = 1) was 1033 kg/m3 and the mass density (353.15 K, x1 = 1) was 1026 kg/m3.

In the case of `CCCCCC[N+]1(C)CCCC1.O=S(=O)([N-]S(=O)(=O)C(F)(F)F)C(F)(F)F` + CCC[N+]1(C)CCCC1.O=S(=O)([N-]S(=O)(=O)C(F)(F)F)C(F)(F)F, the mass density (293.15 K, x1 = 0.25) is reported as 1405 kg/m3, the mass density (293.15 K, x1 = 0.5) is reported as 1381 kg/m3 and the mass density (293.15 K, x1 = 0.75) is reported as 1359 kg/m3. The mass density (303.15 K, x1 = 0.5) was 1373 kg/m3, the mass density (303.15 K, x1 = 0.75) was 1350 kg/m3 and the mass density (303.15 K, x1 = 1) was 1329 kg/m3. For the same compound, the mass density (313.15 K, x1 = 0.5) was 1364 kg/m3, the mass density (313.15 K, x1 = 0.75) was 1341 kg/m3 and the mass density (313.15 K, x1 = 1) was 1321 kg/m3. For the same compound, the mass density (323.15 K, x1 = 0.25) was 1378 kg/m3, the mass density (323.15 K, x1 = 0.5) was 1355 kg/m3 and the mass density (323.15 K, x1 = 0.75) was 1332 kg/m3. The mass density (323.15 K, x1 = 1) was 1312 kg/m3, the mass density (333.15 K, x1 = 0.25) was 1367 kg/m3 and the mass density (333.15 K, x1 = 0.5) was 1346 kg/m3. It also gave a mass density (333.15 K, x1 = 0.75) of 1322 kg/m3, a mass density (333.15 K, x1 = 1) of 1304 kg/m3 and a mass density (343.15 K, x1 = 0.25) of 1356 kg/m3. The mass density (343.15 K, x1 = 0.5) was 1337 kg/m3, the mass density (343.15 K, x1 = 0.75) was 1311 kg/m3 and the mass density (343.15 K, x1 = 1) was 1296 kg/m3. The mass density (353.15 K, x1 = 0.25) was 1344 kg/m3, the mass density (353.15 K, x1 = 0.75) was 1299 kg/m3 and the mass density (353.15 K, x1 = 1) was 1287 kg/m3.

With `CCCC[N+]1(C)CCCC1.O=S(=O)([N-]S(=O)(=O)C(F)(F)F)C(F)(F)F` + CCC[N+]1(C)CCCC1.O=S(=O)([N-]S(=O)(=O)C(F)(F)F)C(F)(F)F the mass density (303.15 K, x1 = 1) was 1391 kg/m3, the mass density (313.15 K, x1 = 1) was 1382 kg/m3 and the mass density (323.15 K, x1 = 1) was 1373 kg/m3. It also gave a mass density (333.15 K, x1 = 1) of 1365 kg/m3, a mass density (343.15 K, x1 = 1) of 1356 kg/m3 and a mass density (353.15 K, x1 = 1) of 1347 kg/m3.

Work on `CCC[N+]1(C)CCCC1.N#C[N-]C#N` + CCC[N+]1(C)CCCC1.O=S(=O)([N-]S(=O)(=O)C(F)(F)F)C(F)(F)F yielded a mass density (293.15 K, x1 = 0.25) of 1360 kg/m3, a mass density (293.15 K, x1 = 0.5) of 1277 kg/m3 and a mass density (293.15 K, x1 = 0.75) of 1170 kg/m3. It also gave a mass density (303.15 K, x1 = 0.5) of 1269 kg/m3, a mass density (313.15 K, x1 = 0.25) of 1342 kg/m3 and a mass density (313.15 K, x1 = 0.5) of 1261 kg/m3. For the same compound, the mass density (313.15 K, x1 = 0.75) was 1156 kg/m3, the mass density (313.15 K, x1 = 1) was 1026 kg/m3 and the mass density (323.15 K, x1 = 0.25) was 1334 kg/m3. The mass density (323.15 K, x1 = 0.5) was 1253 kg/m3, the mass density (323.15 K, x1 = 0.75) was 1150 kg/m3 and the mass density (323.15 K, x1 = 1) was 1021 kg/m3. It also gave a mass density (333.15 K, x1 = 0.5) of 1246 kg/m3, a mass density (333.15 K, x1 = 1) of 1015 kg/m3 and a mass density (343.15 K, x1 = 0.25) of 1318 kg/m3. The mass density (343.15 K, x1 = 0.5) was 1239 kg/m3, the mass density (343.15 K, x1 = 1) was 1010 kg/m3 and the mass density (353.15 K, x1 = 0.25) was 1310 kg/m3. The mass density (353.15 K, x1 = 0.5) was 1232 kg/m3, the mass density (353.15 K, x1 = 0.75) was 1130 kg/m3 and the mass density (353.15 K, x1 = 1) was 1005 kg/m3.

`CC[n+]1ccn(C)c1.O=S(=O)([N-]S(=O)(=O)C(F)(F)F)C(F)(F)F` + CCC[N+]1(C)CCCC1.O=S(=O)([N-]S(=O)(=O)C(F)(F)F)C(F)(F)F gave a mass density (303.15 K, x1 = 1) of 1514 kg/m3, a mass density (313.15 K, x1 = 1) of 1503 kg/m3 and a mass density (323.15 K, x1 = 1) of 1494 kg/m3. It also gave a mass density (333.15 K, x1 = 1) of 1484 kg/m3, a mass density (343.15 K, x1 = 1) of 1474 kg/m3 and a mass density (353.15 K, x1 = 1) of 1464 kg/m3.

Work on `CCC[N+]1(C)CCCC1.O=S(=O)([N-]S(=O)(=O)C(F)(F)F)C(F)(F)F` + CC[n+]1ccn(C)c1.O=S(=O)([N-]S(=O)(=O)C(F)(F)F)C(F)(F)F yielded a mass density (293.15 K, x2 = 0.25) of 1454 kg/m3, a mass density (293.15 K, x2 = 0.75) of 1499 kg/m3 and a mass density (303.15 K, x2 = 0) of 1423 kg/m3. It also gave a mass density (303.15 K, x2 = 0.25) of 1445 kg/m3, a mass density (303.15 K, x2 = 0.75) of 1489 kg/m3 and a mass density (313.15 K, x2 = 0) of 1414 kg/m3. It also gave a mass density (313.15 K, x2 = 0.25) of 1435 kg/m3, a mass density (313.15 K, x2 = 0.5) of 1456 kg/m3 and a mass density (313.15 K, x2 = 0.75) of 1479 kg/m3. It also gave a mass density (323.15 K, x2 = 0) of 1405 kg/m3, a mass density (323.15 K, x2 = 0.25) of 1426 kg/m3 and a mass density (323.15 K, x2 = 0.5) of 1447 kg/m3. It also gave a mass density (323.15 K, x2 = 0.75) of 1469 kg/m3, a mass density (333.15 K, x2 = 0.25) of 1417 kg/m3 and a mass density (333.15 K, x2 = 0.5) of 1437 kg/m3. For the same compound, the mass density (333.15 K, x2 = 0.75) was 1453 kg/m3, the mass density (343.15 K, x2 = 0) was 1388 kg/m3 and the mass density (343.15 K, x2 = 0.25) was 1408 kg/m3. For the same compound, the mass density (343.15 K, x2 = 0.5) was 1428 kg/m3, the mass density (343.15 K, x2 = 0.75) was 1444 kg/m3 and the mass density (353.15 K, x2 = 0.25) was 1399 kg/m3. For the same compound, the mass density (353.15 K, x2 = 0.5) was 1418 kg/m3 and the mass density (353.15 K, x2 = 0.75) was 1433 kg/m3.
